Data published in the supplement of paper PMC12632987.
The full ranking holds about 4,500 sequences; the median of “median log2 fold change of GCK-ALFA target abundance (FLAG IP / Myc IP barcode read proportion)” is about 0.078, and the lowest 2% start at about -0.6. This is one part of the list.

B1: GBRAP_160_4378 (protein)
chain: SEELKELREDVEELRKEFEEEAKDLSTEEVRTLAIGVLAEVAADVWSNEAISEETKDKIMEIIDEAIEKLRENADASPEEIVKITTEALDKIIELIKEEE
B2: GBRAP_11_2772 (protein)
chain: KAEELKEAAKLAEELAKLAEELIEKGPDDEELLKELEKKLEELKKLTEKYGSEAQKKDVELIEELFKEMLEDPENAEEYLKELRNQALVLSGQFLLDAEE
B3: GBRAP_52_5961 (protein)
chain: MREKMEKLVNELLELKKEGKEEEMRKKLKEIAETLNEEELELLAEVMAEKVKESNLEEAEILLDIALELGDVLIEEGRDEGIASYIEALVAAAAYELEQK
B4: GBRAP_128_3175 (protein)
chain: SVEEVRERTREAMERIRNSSPEEAREIAEELFTWLGTLSLEEAEAAVEVILEMLPELTAEHLEIVADVAREHRPLFTPEKAELVAEVEVEALNLAEELEE
B5: GBRAP_125_3096 (protein)
chain: HMEEILEALKLLAKALGFSEEEAEELARLAANSSVKQTLYALFAAEGYEELADLVEKLTEEQAKEVLLELAKWLKENPNASKEEVVKKAKELAKKALAKA
B6: GBRAP_55_6438 (protein)
chain: MTDEEMHQEAIDDTVEMLRDAALDTDTFVRLALALADLLEPGEEVTVEIVVEDPEDAERALAAAEAAKAALEARGYEATIEVEERPDGSTVIRLTIRRPA
B7: GBRAP_78_6663 (protein)
chain: KVEELIDKALEELSKAAKLTKELPEEDRNEVLDLLVDAASDLVEAEEEGGDLKLLEEALKELEKAIKLLEELKTEEAAKVLKEVKKAKEYVKKAIKELKK
B8: GBRAP_128_3436 (protein)
chain: SSEELLKKAKELIEKILKASVEEVYELTKELLELFDTLSDEDAEKVAEYFISKIPKLSKEKLEAVADAIREQRPKLSPYKANLANEVEVEALNQILELEE
B9: GBRAP_52_6318 (protein)
chain: MRERAEELAERLVKLVKEGKLEEAKALAKEIAENESLEFLELLAEVLAERILTADEEERDALLEATEILAEALIEAGHDEAFASDIIARAAAAGYEAELR
B10: GBRAP_137_3672 (protein)
chain: MIDAKIEIEDGLAYAELTYKGSLEEAKKAAEIAEEIAGKIPGIAISTKVDEDGTLTIDLGGTLEQIMKFLKELAKALNVTINVTIKDLDTGETTKETIKA
B11: GBRAP_52_6167 (protein)
chain: MEERAKEYAEKLLAAVKAGDEEKVEEILKEIAETMNDEEIELFLDHVAKAVAGLTPEDKERVVEAALRFEDIAIEAGHDEELLDYHVARVAGAAYDALQA
B12: GBRAP_14_3795 (protein)
chain: KEEKIKAIEEAREEALKLAESLPEEVRELLERILREATEELKEGIEKNEIDLDGVAEILDEHIEKLKEEVKPFPEEHRNEAIAIFNDYAGDVLLELEELE
B13: GBRAP_160_4351 (protein)
chain: MERVEKLIKEIREATEEVIEALDEVSVEEAATLAAGEFGSVAMEAALDERMSDEMVDAVIKGMDEAVAALKEMADASVEERKKKLREITEKTIEELKKIA
B14: GBRAP_131_3605 (protein)
chain: LKGLLATIDEPLSVEEALARVDEIVAEAVAQGADALVIRLRNQSEEVYEAALERADELDERLEKERGMKIVVLPPGTTEAEAQNILQALLDEVELEKEEE
B15: GBRAP_160_4534 (protein)
chain: SEFLEEAERELEETAEEAIELMKGQTAEQRATIADVEFGSFALELAEDPRASDEMVDVVLDNRDKLVATILANPDLTDEELEALIEETREKTIEELRKLF
B16: GBRAP_53_6393 (protein)
chain: KEEEIKKLIEELKKLIEELKKADAEEAVKLAKEAAEVLVKLAELGLPEEELVKLVKEFAEAVKDRPELEPVLIALAKRLAALGREEAAAEAAEALVEELE
B17: GBRAP_39_5628 (protein)
chain: EEEEELELLESLAEAELEKRRVETGLPLDELYARLLAEALKKVADNPELLAAIKELAALAEEKGEEAKERLAAILAALLAGEPLEDILRLVKAEIAKLKA
B18: GBRAP_160_4841 (protein)
chain: SAKAEKVKKELNEARDFVLSLVDEVSVEQLANAFDTEFSSVLEELYEEGVINEEAEDAGMAIVDEGVAALLAAKDASPEEIRALIKETVDKLIKTIEKLL
B19: GBRAP_78_6719 (protein)
chain: ELEELLDKAIETLNEAAKLALELPEEKSNELLDLLVEAINLLMEIIEENLPKEEAIKLLEEAIKLLEKALELLGGENPELKAKVEEAKKLVEKALKLAKK
B20: GBRAP_160_4500 (protein)
chain: SEKVERAIKELEELAELAIEAMKEVSDKDAVKIFRAYAGEMIELLREEANISEETEEKLDKILEELVKEMEAIKNLTPEQIEEIVNRFKEKAIELLKEES
B21: GBRAP_184_5025 (protein)
chain: RVVERTIEAADLAELEARLAALREEVAGTGADLIVLADIEDPTVEQIRTLLRALGALKREGLVSSVTVGFARELTEEQTDVALATADEEGIRVVLAISDE
B22: GBRAP_52_6131 (protein)
chain: MEERARRLVEELVELLKAGREEEAEELARRIARELSDEEIRLIADALAELIREASPEEAEYLFEAAELLAEELEEEGRDEALADYVLSRAAAALYERELK
B23: GBRAP_52_6042 (protein)
chain: MEERMRELAEEILALYLEGREEEARKLIREAVETLSEEELKLLGEALAELAREAPPEHLDAYMQAAFDLADALEEAGYDEVLADDLEARVAAAAVENLKR
B24: GBRAP_128_3309 (protein)
chain: MDEEKLAEAARLAKEMVESDIETAKELTRRFVALMATLTPEERERAAEIFKEELKKLSAEKLDAIADTLDELLPTLDPETANYVNEIRVEALNEAEEKEE
B25: GBRAP_74_6526 (protein)
chain: DAALLAALKAAADAGDVEAAVALAREIIATGSLAAVEEAAEILVEFVKKNIDKLTKEELELLSDTLAELADRLMELGGDSEVVIAVAQTAVELDKKAAAL
B26: GBRAP_128_3456 (protein)
chain: SVEEVRKWTREVMEEIKKANLEEARKLVEELAERLKTLSLEEVEAAVEVIEEELPKLTPEKLEIIADVFREAAPELDPEKRALVAGAASDALLLAEEKEE
B27: GBRAP_128_3502 (protein)
chain: STAAAVARAEELMAEVGEADDEEAREIAKEIVALIDSLDDATAEAVADAIIAQLPKLDKESLEIVADTFREQLPSLDPEKANLVADIQVEALNLALEKEE
B28: GBRAP_43_5782 (protein)
chain: SKELVDGAIDFAILTLEEPEIPEEQKVKAAKAAFDLAADEGYVDLEKLKKVVEAAGKSLSAESLKELKAHLEEIAKKYPEHKEVFEEAAKLVEEYIKKKE
B29: GBRAP_125_2972 (protein)
chain: SEEQLLEDLRLVALALGLSEEDAEEAAALARASSVKGTLYAIMAALGYEEAAAAVEKLTEEEAKEVLRRVAAEIRANPELTPEEVRALILREAEAAIAAR

These binders were tested against GABARAP, O95166 (assay: median log2 fold change of GCK-ALFA target abundance (FLAG IP / Myc IP barcode read proportion) (log2 ratio); each designed protein is fused to an ALFA-tag nanobody in HEK293 cells to bring the named protein to FLAG-tagged glucokinase (GCK); Myc marks an untargeted standard; higher = target protein stabilised (more abundant)). Conditions: target protein: 3xFLAG-MCP-GCK-ALFA reporter; HEK293 landing pad (RPLP).
Chain of GABARAP, O95166 (O95166 whole entry, the tested form may be a part): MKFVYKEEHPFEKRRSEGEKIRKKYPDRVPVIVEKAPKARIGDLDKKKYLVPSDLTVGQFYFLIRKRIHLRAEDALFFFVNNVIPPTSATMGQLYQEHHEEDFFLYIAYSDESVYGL
Outline: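 Sequencing of reverse-transcribed, amplified circular RNA barcodes from anti-FLAG and anti-Myc immunoprecipitates provided the readout for an ALFA-nanobody-fused binder library recombined into HEK293 landing-pad cells. Those cells were induced with 2 μg mL^−1 doxycycline, transfected with a plasmid expressing a FLAG-tagged target and a Myc-tagged standard, and lysed after 48 h. Target abundance is the per-binder median log2 ratio of FLAG to Myc barcode read proportions. Only barcodes at a proportion of ≥10^−7 in both replicates and binders with ≥3 barcodes per replicate were kept, with a 10^−6 pseudocount added before the two replicates were pooled.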
In the case of B1, the “median log2 fold change” value is reported as -0.0653. In the case of B2, the “median log2 fold change” value is reported as 0.288. In the case of B3, the “median log2 fold change” value is reported as -0.261. With B4 the “median log2 fold change” value was 0.269. For B5, the “median log2 fold change” value was 0.229. B6 was tested, and the “median log2 fold change” value was 0.146. With B7 the “median log2 fold change” value was -0.19. In the case of B8, the “median log2 fold change” value is reported as 0.166. In the case of B9, the “median log2 fold change” value is reported as 0.11. With B10 the “median log2 fold change” value was 0.117. In the case of B11, the “median log2 fold change” value is reported as -0.0719. In the case of B12, the “median log2 fold change” value is reported as 0.092. B13 was tested, and the “median log2 fold change” value was -0.319. With B14 the “median log2 fold change” value was 0.0781. For B15, the “median log2 fold change” value was -0.346. B16 was tested, and the “median log2 fold change” value was 0.237. B17 was tested, and the “median log2 fold change” value was 0.347. For B18, the “median log2 fold change” value was -0.131. In the case of B19, the “median log2 fold change” value is reported as 0.394. For B20, the “median log2 fold change” value was 0.184. B21 was tested, and the “median log2 fold change” value was 0.101. For B22, the “median log2 fold change” value was -0.469. For B23, the “median log2 fold change” value was -0.435. In the case of B24, the “median log2 fold change” value is reported as 0.295. In the case of B25, the “median log2 fold change” value is reported as 0.0262. In the case of B26, the “median log2 fold change” value is reported as 0.13. With B27 the “median log2 fold change” value was 0.0852. B28 was tested, and the “median log2 fold change” value was 0.351. In the case of B29, the “median log2 fold change” value is reported as -0.0731.
